Measured values from article PMC3257419 (Journal of Medicinal Chemistry, 2011).

System: nucleus accumbens dopamine
Details: i.p. 60 min prior to cocaine 20 mg/kg; vigabatrin 300 mg/kg, CPP-115 1 mg/kg

C=CC(N)CCC(=O)O (stereo not shown) [Vigabatrin, vigabatrin]
cocaine-induced increase in dopamine after pretreatment: 331 ± 32%
